Experimental data taken from paper PMC4336329 (PLoS ONE, 2015).
The whole screen tested about 310,000 compounds, of which about 14,000 (4.5%) showed an effect of 50% or more. The effect is printed as a negative number. The list shows a part of the results.

Target: human ether-à-go-go-related gene (hERG) potassium channel (human, UniProt Q12809)
Assay: primary screen, population patch clamp on CHO cells stably expressing hERG
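Note: peak tail current of the secondary pulse compared with the same well before compound.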

Chain of human ether-à-go-go-related gene (hERG) potassium channel (Q12809 whole entry, looked up): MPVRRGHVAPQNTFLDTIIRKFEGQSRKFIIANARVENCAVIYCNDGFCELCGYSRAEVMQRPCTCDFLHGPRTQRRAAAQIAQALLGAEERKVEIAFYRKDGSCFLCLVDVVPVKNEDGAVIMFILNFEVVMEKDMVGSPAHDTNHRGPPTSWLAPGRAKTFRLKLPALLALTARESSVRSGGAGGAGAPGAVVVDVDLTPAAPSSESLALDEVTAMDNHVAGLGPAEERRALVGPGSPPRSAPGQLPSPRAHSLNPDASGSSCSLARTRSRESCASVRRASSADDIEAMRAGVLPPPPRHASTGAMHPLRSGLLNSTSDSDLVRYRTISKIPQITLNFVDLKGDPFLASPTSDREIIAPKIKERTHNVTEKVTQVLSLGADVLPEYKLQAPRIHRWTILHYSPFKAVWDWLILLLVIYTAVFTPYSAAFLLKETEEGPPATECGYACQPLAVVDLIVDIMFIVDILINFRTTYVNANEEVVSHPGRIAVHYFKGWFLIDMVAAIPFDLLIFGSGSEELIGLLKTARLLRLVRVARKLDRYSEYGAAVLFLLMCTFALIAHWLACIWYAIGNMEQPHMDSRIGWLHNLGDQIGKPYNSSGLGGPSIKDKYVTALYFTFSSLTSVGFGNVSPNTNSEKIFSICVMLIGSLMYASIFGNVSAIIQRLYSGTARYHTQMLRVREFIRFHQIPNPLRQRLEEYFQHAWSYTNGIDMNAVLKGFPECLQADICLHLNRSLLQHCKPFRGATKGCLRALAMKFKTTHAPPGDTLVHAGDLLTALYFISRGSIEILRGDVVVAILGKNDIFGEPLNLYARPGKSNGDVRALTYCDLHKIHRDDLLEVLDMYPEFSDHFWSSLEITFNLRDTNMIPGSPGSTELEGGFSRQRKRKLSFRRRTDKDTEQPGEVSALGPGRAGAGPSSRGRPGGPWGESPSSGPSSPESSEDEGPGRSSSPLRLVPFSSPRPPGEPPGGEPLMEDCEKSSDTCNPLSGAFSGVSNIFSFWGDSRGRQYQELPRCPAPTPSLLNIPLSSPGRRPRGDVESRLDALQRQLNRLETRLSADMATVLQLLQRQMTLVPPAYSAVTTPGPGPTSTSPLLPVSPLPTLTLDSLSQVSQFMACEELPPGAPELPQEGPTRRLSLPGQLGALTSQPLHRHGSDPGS

SMILES	hERG current change (%, negative = inhibition) at 10uM [%]
O=C(Nc1ccc(N2CCN(C(=O)c3ccco3)CC2)c(Cl)c1)c1cccnc1	-16.8
Cc1cc(C)c(NC(=O)CSc2nnc(SCC(=O)Nc3c(C)cc(C)cc3C)n2N)c(C)c1	2.93
CC(C)c1ccc(NS(=O)(=O)c2cccc3cccnc23)cc1	-3.65
COC(=O)c1cc(S(=O)(=O)NCC2CCN(CCc3ccc(OC)cc3)CC2)cn1C	-61.2
Cc1ccc(-c2nnc(Oc3ccc(NC(=O)c4ccccc4)cc3)c3ccccc23)cc1	1.95
Cc1nnc(SCC2=C(C(=O)O)N3C(=O)C(NC(=O)COc4ccc(F)cc4)C3SC2)s1 (stereo not drawn)	37.9
COc1ccc2c(c1)C=C(CN1CCN(C(C)C)C(CCO)C1)CO2 (stereo not drawn)	5.68
COCCN1CC(O)=C(c2nc3ccccc3c(=O)[nH]2)C1=N	11.3
CCSc1nnc(-c2c[nH]c3ccccc23)o1	-2.59
Cc1cccc(Cn2nnc3ccccc32)c1O	1.09
COc1ccccc1/C=C1\SC(=S)N(CCC(=O)NNC(=O)c2ccccc2O)C1=O	4.15
Cc1ccc(C)c(OCc2cc(C(=O)NC(C)c3cnn(C)c3)no2)c1 (stereo not drawn)	-7.2
CN(C)c1nc(N)nc(CSc2nnnn2-c2cccc3ccccc23)n1	-12.4
O=C1CCCCc2sc(Br)c([N+](=O)[O-])c2N1	9.25
COc1cccc(-n2nnnc2SCC(=O)Nc2ccc(C(C)=O)cc2)c1	19.4
CN(C)c1ccc(C(=O)NCCCSc2ccccc2)cc1	16.1
COCCNC(=O)NC(=O)CN1CCCc2ccccc21	-1.83
Cc1ccccc1NC(=O)c1ccccc1-c1ccccc1	-24.4
Cc1cccc(Nc2ncnc3onc(-c4ccc(F)cc4)c23)c1C	-4.56
O=[N+]([O-])c1cccc(-c2ccc(CN3CCN(c4ccccc4)CC3)o2)c1	3.17
COc1ccccc1N1CCN(C(=O)CSc2nc(C)c(Cc3ccccc3)c(=O)[nH]2)CC1	-49.3
C=CCCN([C@@H](C)C(=O)OC)S(=O)(=O)c1ccccc1Br	0.0767

SMILES	hERG current change (%, negative = inhibition) at 10uM [%]
O=C1N(c2ccccc2)C(c2ccc(Cl)cc2)N2CCCN12 (stereo not drawn)	-17.2
C=CCNC(=S)Nc1cc(Cl)ccc1OC	15.6
Cc1cc[n+](CC(=O)c2cccs2)cc1.[Br-]	10.5
CC(=O)c1sc(NC(=O)CS(=O)(=O)c2ccccc2)nc1-c1ccccc1	6.7
Cc1cccc(C)c1NC(=O)CSc1nnc(-c2ccco2)c(-c2ccco2)n1	-67.1
CC1CCCCN1C(=O)c1ccccc1NC(=O)c1ccco1 (stereo not drawn)	6.13
O=C(CN1C(=O)NC2(CCCc3ccccc32)C1=O)Nc1cccc(S(=O)(=O)N2CCCCC2)c1 (stereo not drawn)	23.3
COc1ccc(CNC(=O)C(c2cccs2)N(C(=O)c2csnn2)C2CC2)cc1 (stereo not drawn)	-12.2
CCC(=C/c1sc2ccc3ccccc3c2[n+]1C)/C=C1\Sc2ccc3ccccc3c2N1C.[Cl-]	11.8
O=C(Nc1c(C(=O)N2CCCC2)cnn1-c1ccccc1)c1cccc(F)c1	1.72
CC(=O)c1c(C)[nH]c(C(=O)OCC(=O)Nc2sc3c(c2C#N)CCCC3)c1C	10.9
CC(C)(C)c1cn(-c2ccccc2)c(=S)[nH]1	17.8
CC1(C)Cc2c(c(-c3ccccc3)[nH]c(=O)c2C#N)CO1	7.15
O=C(NCc1ccc(N2CCCC2=O)cc1)Nc1cccc2ccccc12	14.3
COc1ccc(-c2cc(CCCC(=O)NCc3ccccn3)no2)cc1	-15.9
Cc1cc(C)nc(N2CCCC(C(=O)NNC(=O)c3ccncc3)C2)n1 (stereo not drawn)	-13.2
COC(=O)c1c(NC(=O)COC(=O)c2ccc(C)s2)sc2c1CCCCC2	15.7
COc1ccccc1C(=O)NC(=O)COC(=O)C1CC1C (stereo not drawn)	-3.4
CC(=O)c1ccc(N2CCC(C)CC2)c(F)c1	34.8
CC(=O)N=c1sc(C(C)(C)C)c(C)n1C	6.95
CC(=O)C(C(C)=O)c1c(Cl)c(O)c(O)c2c(C(=O)c3ccccc3)coc12	-43.8
Cc1ccc2c(c1)N(S(=O)(=O)c1cc(-c3cc(C)no3)ccc1C)CCO2	7.89

SMILES	hERG current change (%, negative = inhibition) at 10uM [%]
Cc1ccc(Oc2ccc(OCC(=O)NC3CCS(=O)(=O)C3)cc2)cc1 (stereo not drawn)	-2.44
CC(C)CCNC1=CC(=O)CC(c2ccccc2)C1 (stereo not drawn)	-33.2
COc1ccc(CNS(=O)(=O)c2c(C(=O)N3CCCCCC3)c(C)n(C)c2C)cc1	16.8
O=C(/C=C/c1ccco1)N/C(=C\c1ccco1)C(=O)NCCc1nc2ccccc2[nH]1	-22.6
Cc1ccnc(NC(=O)c2ccc([N+](=O)[O-])s2)c1	2.19
COc1ccc(NC(=O)c2cc(-c3ccc(C)cc3)on2)cc1	12.6
O=S(=O)(Nc1ccccc1)c1ccc2c(c1)CCO2	11
Cc1cccc(N(C(=O)CNC(=O)c2ccco2)C(C(=O)NC2CCCC2)c2ccncc2)c1 (stereo not drawn)	7.95
O=c1[nH]c(=O)n(Cc2ccccc2)c(O)c1C=NCCN1CCNCC1	12.4
CN1CCN(c2ccc(NC(=O)CSc3nnnn3-c3ccccc3Cl)cc2)CC1	-39.1
CC(/C=C(\C)Nc1ccccc1)=[NH+]c1ccccc1.[O-][Cl+3]([O-])([O-])[O-]	26.9
CCc1noc(C)c1C(=O)N1CC(C)SC1=Nc1ccc(Cl)cc1 (stereo not drawn)	-30.4
Cc1cccc(C(=O)N[C@H](C(=O)Nc2nnc(C3CC3)s2)C(C)C)c1	15.2
CC(C)(C)OC(=O)N1CCC[C@H]1c1nnc(SCc2ccccc2F)o1	-7.91
COCCNC(=O)C(c1ccc(C)cc1)N(C(=O)CCC(=O)Nc1ccccn1)c1ccc(C)cc1 (stereo not drawn)	14.4
CCCc1nc2oc3c(NCc4ccccn4)ncnc3c2c2c1COC(C)(C)C2	-17.8
N#C/C(C(=O)N1CCCCC1)=C1\Nc2ccccc2S1	3.64
O=C(Nc1nc2ccccc2[nH]1)C1CCN(C(=O)c2ccc(F)cc2)CC1	-41.7
CC(=O)c1ccc(N2CCN(C(=O)Nc3cccc(F)c3)CC2)cc1	-15.4
CCc1ccc(C2CC(=O)NC(SCC(=O)OC(C)C)=C2C#N)cc1 (stereo not drawn)	-16.1
Cc1ccccc1CN1C(=O)c2ccccc2Sc2ccc(C(=O)NCCCN3CCOCC3)cc21	-62.9
Cc1ccc2c(c1)CNc1ccccc1O2	-13.7

SMILES	hERG current change (%, negative = inhibition) at 10uM [%]
COC(=O)C(O)(NC(=O)NC(C)=O)C(F)(F)F (stereo not drawn)	6.61
O=C1CCCN1CCCNc1ncccc1[N+](=O)[O-]	10.7
COc1cc(/C=N/NC(=O)CSc2nc3ccccc3n2C)cc(OC)c1OC	15.6
CC1CCN(S(=O)(=O)N2CCN(C(=O)c3ccc4c(c3)OCO4)CC2)CC1	-20.4
CC(=O)[C@H]1CC[C@H]2[C@@H]3CCC4=CC(=O)CC[C@]4(C)[C@H]3[C@H](O)C[C@]12C	-9.39
Cc1ccc(N2CC(C(=O)Nc3ccc(S(=O)(=O)NCC4CCCO4)cc3)CC2=O)cc1C (stereo not drawn)	12.7
O=C(CSc1nnc(-c2ccccc2)o1)N1CCCC1	15.6
Cc1ccc(CSc2nnc(-c3ccncc3)n2C)cc1	4.36
O=C(c1ccc(-n2cncn2)c([N+](=O)[O-])c1)N1CCN(S(=O)(=O)c2ccc(Br)cc2)CC1	-67.5
CCCSC1=C(C#N)C(c2ccccc2C)CC(=O)N1 (stereo not drawn)	1.21
CCC(=O)N1CCN(c2nc(-c3ccc(Cl)cc3)cs2)CC1	-25
CN(C)S(=O)(=O)c1cccc(NC(=S)NC23CC4CC(CC(C4)C2)C3)c1	6.29
COc1ccc(/C=C/C(=O)O/N=C(\N)c2ccccc2)cc1OC	-17.3
CCN(CC)C(=O)Oc1ccc(Br)cc1C(=O)Nc1ccc(F)c(Cl)c1	2.76
Cc1ccc(CS(=O)(=O)CCC(=O)NCc2cccs2)cc1	-10
O=C(N/N=C/C=C/c1ccco1)c1cccnc1	4.64
Cc1ccc(C(C(=O)NC2CCCCC2)N(C(=O)c2csnn2)C2CC2)cc1 (stereo not drawn)	-9.75
CCCCCN(C(=O)CCC(=O)OCC(=O)N(C)C1CCCCC1)c1c(N)n(CCCC)c(=O)[nH]c1=O	-0.0368
Cc1ccc(N(C(=O)CCC(=O)Nc2nccs2)C(C(=O)NC(C)(C)C)c2ccc(O)cc2)cc1 (stereo not drawn)	15.3
COc1ccccc1NS(=O)(=O)c1cccc(C(=O)NN)c1	-5.56
CCCOc1ccc(C(=O)NCCO)cc1	11.7
